Test results published in PubChem BioAssay AID463173 (ICCB-Longwood Screening Facility, Harvard Medical School, 2010).
Screen size: about 52,000 compounds; about 4,300 (8.3%) were called active. Rule as the data show it: active = survival mostly below about 52% (no sharp cut-off); inactive = mostly above about 56%. Some of the results follow.

tested on: DeltatarO mutant; test: S. aureus survival, RN4220 and DeltatarO strains – OD600, teichoic acid synthesis inhibitors, primary screen (AID 463173); details: S. aureus RN4220 wild type/DeltatarO growth, OD600, 18 h, stronger effect = lower value, screened at 18.75 µg/mL (by protocol)

Row | SMILES | survival
1 | COc1ccccc1C(=O)Nc1c(C(=O)N(CCN(C)C)Cc2ccco2)oc2ccccc12 | inactive: 55%
2 | C=Cc1ccc(Cn2c(C(=O)O)c(CNCc3cccs3)c3ccc(C)cc32)cc1 | inactive: 94%
3 | Cc1ccc(S(=O)(=O)c2cn(C)c3cc(N4CCCCCC4)c(F)cc3c2=O)cc1 | inactive: 85%
4 | CCOC(=O)c1ccc(NC(=O)c2c(NCc3cccs3)sc3c2CCCCC3)cc1 | inactive: 104%
5 | O=S(=O)(NCc1nc2cccnc2n1Cc1ccc(F)cc1)c1ccc2c(c1)CCCC2 | inactive: 89%
6 | O=S(=O)(NCCc1csc2nc(-c3ccc(F)cc3)nn12)c1ccc(Br)cc1 | inactive: 94%
7 | Cc1cc(NC(=O)Cn2c(=O)nc(-c3ccccc3F)c3cc(Cl)ccc32)ccc1Br | inactive: 160%
8 | Nc1nc2sc3c(c2cc1C(=O)N1CCOCC1)CCCC3 | inactive: 72%
9 | Cc1ccc(-c2nc(C#N)c(NCCN3CCCCC3)o2)cc1 | inactive: 85%
10 | CCOC(=O)c1c(C)oc2nc(C)nc(N3CCN(c4ccc(C(C)=O)cc4)CC3)c12 | inactive: 86%
11 | COc1cccc(C(=O)N(Cc2sccc2C)C2CCS(=O)(=O)C2)c1 (centres undefined) | inactive: 92%
12 | CC(C)(C)OC(=O)N1CCC(c2c(C(=O)NCc3ccc(F)cc3)cnn2-c2ccc(F)cc2)CC1 | active: -5%
13 | COc1ccc(OCC2c3cc(OC)c(OC)cc3CCN2C(=O)c2ccc(F)cc2)cc1 (centres undefined) | inactive: 94%
14 | CCN(CC)CCNC(=O)c1sc2nc3n(c(=O)c2c1C)CCCCC3 | inactive: 53%
15 | COc1ccc(C(=O)Nc2cc(-c3cccc(C)c3)nn2-c2ccccc2)cc1 | inactive: 102%
16 | Cc1ccc(-c2cn3c(n2)sc2cc(C(=O)NCCCN4CCCCC4)ccc23)cc1 | active: -3%
17 | COc1ccc2cc3cc(C(=O)N4CCN(c5ccc(C(C)=O)cc5)CC4)sc3nc2c1Cl | inactive: 64%
18 | CCOC(=O)c1ccc(NC(=O)CC2C(=O)N(c3cccc(OC)c3)C(=O)N2C2CCCCC2)cc1 (centres undefined) | inactive: 63%
19 | Cc1cc(C)nc(SCCSc2nc(C)cc(C)n2)n1 | inactive: 87%
20 | COc1nc(N2CCCCCC2)nc(N2CCCCCC2)n1 | inactive: 66%
21 | Cc1ccc(OCCn2cc(C(=O)C3CCCCC3)c3ccccc32)cc1 | active: 3%
22 | O=S(=O)(N1CCCCC1)N1CCN(c2ccc(F)cc2)CC1 | active: 65%
23 | CC1=C(C(=O)Nc2ccccc2C)C(c2ccncc2)n2nc(SCc3ccccc3)nc2N1 (centres undefined) | inactive: 65%

Row | SMILES | survival
24 | COc1cc(C(=O)N2CCc3ccccc32)cc(OC)c1OC | inactive: 104%
25 | COc1cn(CC(=O)Nc2ccc(F)cc2)c(CN2CCCCC2)cc1=O | inactive: 90%
26 | COc1cccc(CSc2nc3n(n2)C(c2cccs2)C(C(=O)Nc2ccccc2C)=C(C)N3)c1 (centres undefined) | inactive: 78%
27 | CCOC(=O)c1c(N)n(-c2ccc(Cl)c(Cl)c2)c2nc3ccccc3nc12 | inactive: 94%
28 | O=C(O)CSc1nnc(-c2ccccc2)n1-c1ccccc1 | inactive: 95%
29 | CCN1CCN(c2cc(C)c3cc(NC(=O)c4cccc(C(F)(F)F)c4)ccc3n2)CC1 | inactive: 63%
30 | Cc1ccc(NC(=O)Cn2c(=O)n(-c3ccc(Cl)c(Cl)c3)c(=O)c3c(C)c(C)sc32)c(C)c1 | inactive: 95%
31 | Cc1cc(S(=O)(=O)N2CCOCC2)ccc1N=Cc1c(C)[nH]n(-c2ccc(Cl)cc2)c1=O | inactive: 90%
32 | Cc1cccc(Cn2c(CN3CCC(C(=O)NCc4cccnc4)CC3)cc3ccccc32)c1 | inactive: 74%
33 | O=C(NCc1ccc(Cl)cc1)c1ccc2c(Cl)c3c(nc2c1)CCCC3 | inactive: 70%
34 | Cc1ccc(OCCSc2nnc(-c3cccs3)o2)cc1Cl | active: 45%
35 | Cc1ccc(C)c(N2CCN(C(=O)CCC(=O)Nc3ccc4nc(N5CCCCC5)cc(C)c4c3)CC2)c1 | inactive: 51%
36 | CC(=O)Nc1ccc(NC(=O)C2CCN(c3c(NC(C)=O)c(C)nn3-c3ccccc3)CC2)cc1 | inactive: 67%
37 | CCOC(=O)c1ccc2nc(C)cc(Nc3cccc(C(=O)O)c3)c2c1 | inactive: 173%
38 | CCOC(=O)c1c(C)n(-c2ccccc2)c2ccc(OC(=O)c3ccccc3NC(=O)C(C)C)cc12 | active: 47%
39 | CCOC(=O)c1cccc(NC(=O)CCCn2nc(C)c3c(C)n(-c4ccccc4)nc3c2=O)c1 | inactive: 58%
40 | COc1ccc(Cl)cc1NC(=O)Cn1ncc2c3ccccc3n(C)c2c1=O | inactive: 135%
41 | Cc1ccc2[nH]c3c(=O)n(CC(=O)NCc4ccco4)ncc3c2c1 | inactive: 67%
42 | CCCN(Cc1cccs1)C(=O)Nc1cc(Cl)ccc1C | inactive: 64%
43 | Cc1nn(CC(=O)NCc2ccc(F)cc2)c2ccccc12 | inactive: 82%
44 | Cc1nc(N2CCCC2)ncc1C(=O)NCc1cccc(Cl)c1 | inactive: 90%
45 | O=C(Nc1ccccc1)/C(=C/c1ccccc1)NC(=O)c1ccco1 | inactive: 110%
46 | CC(C)Cc1ccc(S(=O)(=O)N2CCC(c3ccncc3)CC2)cc1 | inactive: 130%

Row | SMILES | survival
47 | COc1ccccc1N1CCN(C(=O)Cn2c(=O)n3nc(-c4ccc(C)cc4)nc3c3ccccc32)CC1 | inactive: 86%
48 | COc1ccc(NC(=O)c2cccc(N3CCCS3(=O)=O)c2)cc1OC | inactive: 67%
49 | COC(=O)c1ccc(NC(=O)CC2C(=O)N(c3cccc(OC)c3)C(=O)N2Cc2ccco2)cc1 (centres undefined) | inactive: 70%
50 | COc1ccc(C)cc1NC(=O)CN1c2ccccc2S(=O)(=O)c2ccccc21 | inactive: 74%
51 | Cc1nnc(N2C(=O)c3oc4ccccc4c(=O)c3C2c2ccc(C(C)(C)C)cc2)s1 (centres undefined) | inactive: 134%
52 | CCc1ccc(NC(=O)CSc2nc3ccccc3nc2Cc2ccc(C)cc2)cc1 | inactive: 73%
53 | COc1ccc(-c2nc3cc(C(C)C)ccc3o2)cc1NC(=O)c1ccccc1[N+](=O)[O-] | inactive: 50%
54 | COc1ccc(Cl)cc1-n1nnc(-c2nc(-c3ccccc3)no2)c1C | inactive: 94%
55 | Cc1ccc(Cn2c(CN3CCC(C(=O)NCc4ccccc4C)CC3)cc3ccccc32)cc1 | inactive: 76%
56 | COc1ccc2c(c1)c(=O)c(C(=O)c1ccc(C)c(C)c1)cn2CC(=O)Nc1ccc2c(c1)OCCO2 | inactive: 76%
57 | COc1ccc(NC(=O)C2COc3ccccc3C2)cc1Cl (centres undefined) | inactive: 99%
58 | C=CCNC(=O)c1ccc2nc(-c3ccco3)c(-c3ccco3)nc2c1 | inactive: 116%
59 | CCc1ccc(CNC(=O)c2c3c(nc4ccccc24)C(=O)N(C2CCCCC2)C3)cc1 | active: 37%
60 | CCOC(=O)c1ccc(N2C(=O)c3[nH]nc(-c4ccc(C)cc4)c3C2c2ccc(O)c(OCC)c2)cc1 (centres undefined) | inactive: 87%
61 | CCOC(=O)c1c(C)[nH]c(C)c1S(=O)(=O)N(C)CC(=O)Nc1cc(Cl)ccc1C | inactive: 94%
62 | CCCn1c(=O)c2sccc2n2c(CCCC(=O)N3CCN(c4ccccc4OC)CC3)nnc12 | inactive: 98%
63 | Cc1ccccc1OCCCCn1c(-c2ccc(Cl)cc2)nc2ccccc2c1=O | inactive: 71%
64 | COc1cc2c(=O)c(C(=O)c3ccc(C)c(C)c3)cn(Cc3ccccc3F)c2cc1OC | inactive: 105%
65 | CCC(C)NC(=O)CSc1nc2cc3c(cc2c(=O)n1CCCC(=O)NCCc1ccc(OC)c(OC)c1)OCO3 (centres undefined) | inactive: 86%
66 | COCCNC(=O)c1ccc2c(=O)n(CCc3ccccc3)c(SCC(=O)CC(=O)OC)nc2c1 | inactive: 88%
67 | COc1ccccc1CNC(=O)c1ccc(CS(=O)(=O)c2c(Cl)cccc2Cl)o1 | inactive: 61%
68 | Cc1cccc(OCCSc2nc3ccccc3n2CC(=O)N2CCOCC2)c1 | active: 44%
69 | c1ccc2c(NC3CCCC3)nc(N3CCNCC3)nc2c1 | inactive: 26%

Row | SMILES | survival
70 | CCC(C(=O)NCc1ccccc1)N(C(=O)Cn1nnc(-c2cccs2)n1)c1ccccc1OC (centres undefined) | inactive: 84%
71 | COc1ccccc1NC(=O)CSc1nnc(-c2ccccc2C)o1 | inactive: 85%
72 | O=C(NCc1ccccc1F)C1CCN(c2nnc(-n3cccc3)s2)CC1 | inactive: 83%
73 | COc1cc(NC(=O)CCc2c(C)nn(-c3ccc(N4CCOCC4)nn3)c2C)cc(OC)c1OC | inactive: 105%
74 | O=C1CC(Cc2ccccc2)C(=O)N1Cc1ccco1 (centres undefined) | inactive: 76%
75 | COc1ccc2c(c1)c(=O)c(C(=O)c1ccccc1)cn2CC(=O)Nc1ccc2c(c1)OCCO2 | inactive: 98%
76 | COC(=O)c1cc(-c2ccccc2)oc1CN | inactive: 91%
77 | CCn1c(SCC#N)nnc1-c1ccc(S(=O)(=O)N2CCCC2)cc1 | inactive: 97%
78 | CC1=C(C(=O)OCc2ccc(C)cc2)C(c2ccccc2F)CC(=O)N1 (centres undefined) | inactive: 119%
79 | CCOc1ccccc1N1CCN(C(=O)C2CCN(Cc3ccc(OC)cc3)CC2)CC1 | inactive: 98%
80 | CC(C)Sc1nc2sc3c(c2c(=O)n1Cc1ccccc1)CCCC3 | active: 13%
81 | COC(=O)c1cc2oc3ccccc3c2n1Cc1nc(-c2ccccc2Cl)oc1C | inactive: 82%
82 | CC1(C)CC(=O)c2cc(-c3nc(-c4ccccc4)cs3)c(=O)[nH]c2C1 | inactive: 88%
83 | Cc1ccc(NC(=O)C2CCN(S(=O)(=O)c3c(C)noc3C)CC2)cc1 | inactive: 105%
84 | O=C(NCCN1CCN(c2ccccc2)CC1)Nc1cccc(Br)c1 | inactive: 68%
85 | Cc1nnc(C)n1-c1ccc(C(=O)Nc2cccc(Br)c2)cc1 | inactive: 97%
86 | Cc1c(Cl)cccc1NC(=O)CCCn1nc(C)c2sc3ccccc3c2c1=O | inactive: 75%
87 | COCCCNC(=O)NC(CCC(C)C)c1c(-n2cccc2)sc2c1CCN(C)C2 (centres undefined) | inactive: 72%
88 | COc1cccc(N2CCN(c3c4c(nc5nncn35)CCC4)CC2)c1 | inactive: 71%
89 | CCC1CCCCN1S(=O)(=O)c1ccc(NC(=O)c2cc(=O)c3c(C)cc(C)cc3o2)cc1 (centres undefined) | inactive: 45%
